Several values for one entry are separate records, joined by “and”; a condition that tells them apart may be missing. Identical values can stand only once.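 Method: 48-hour compound exposure of cells in 96-well plates, five concentrations, linear interpolation of endpoints. Here, GI50 denotes the concentration required for 50% inhibition of growth. At the TGI there is no net growth.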 Peptide text beside a SMILES is read from it. * marks the point of attachment. Cbz = O=C(OCc1ccccc1)*; NHNH2 = NN*
Test system: NCI-H322M lung
Experiment: growth of human tumour cells (NCI), 48 h

SMILES	TGI	GI50
CCN1CCC(O)(C(C(=O)O)c2ccccc2)CC1 (configuration not stated)	> 100 µM	–
Cc1nc(C)c(Cc2ccccc2)o1	> 100 µM	–
C=C1C(=O)O[C@H]2[C@H]1CC/C(Cn1cc(-c3ccc(OC)cc3)nn1)=C\CC[C@@]1(C)O[C@@H]21	23.4 µM	10.7 µM
Oc1c(CN2CCC(N3CCCCC3)CC2)cc(Cc2cc(CN3CCC(N4CCCCC4)CC3)c(O)c3ncccc23)c2cccnc12	13.3 µM	0.964 µM
FC(F)(F)c1cccc(Nc2nccc(-c3cnn4nc(-c5ccccc5)ccc34)n2)c1	> 25 µM	> 16 µM
C=C1C(=O)O[C@H]2[C@H]1CC/C(COC(=O)c1ccc3ccccc3c1)=C\CC[C@@]1(C)O[C@@H]21	3.3 µM	1.7 µM
O=C(/N=N/C(=O)OCc1ccccc1)OCc1ccccc1	> 100 µM	–
Cc1ccc2c(c1)[n+]([O-])c(N)n[n+]2[O-]	> 100 µM	–
CSC(C1c2ccccc2N(c2ccc(C)cc2)C2=NC(=O)N(C)C(=O)C21Cl)S(=O)(=O)c1ccc(C)cc1 (configuration not stated)	59.7 µM	–
COc1ccc2c(c1)CC1=C(O2)c2ccc(OC)cc2OC1	> 100 µM	–
Cc1c2ncccc2cc2oc3ccccc3c(=O)c12	> 100 µM	–
FC(F)(F)c1ccc2nc3n(c2c1)C(c1c(Cl)cccc1Cl)SC3 (configuration not stated)	31.4 µM	–
O=C1/C(=C/c2ccccc2)CNC/C1=C\c1ccccc1	12.2 µM	–
Nc1nc(Cl)c2ncn(Cc3ccc(C45CC6CC(CC(C6)C4)C5)c(O)c3)c2n1	12.3 µM	2.69 µM
NC(=O)c1cc2ccccc2o/c1=N/O	> 100 µM	–
O=[N+]([O-])c1ccc(NC(=S)N=Nc2c(O)[nH]c3ccc(Br)cc23)cc1	23.5 µM	–
CC[C@@H]1C(=O)N(C)c2cnc(Nc3ccc(C(=O)NC4CCN(C)CC4)cc3OC)nc2N1C1CCCC1	> 10 µM and 18.1 µM	–
COc1ccc(NC2=CC(=O)C(=O)c3ccccc32)nn1	15.7 µM	–
c1ccc(/C(=N/Nc2ccccn2)c2ncccn2)cc1	> 100 µM	–
O=C1NC2OC(CO)C(O)C(O1)C2O (configuration not stated)	> 100 µM	–
Nc1c(C(=O)c2ccc(Cl)cc2)[nH]c(NCc2ccccc2)c1C(=S)Nc1ccccc1	5.28 µM	–
COC(=O)Cc1c([C@H]2[C@H](CC(=O)OC)c3ccccc3N2C(C)=O)[nH]c2ccccc12	> 100 µM	–
COCC1OC(N2C(=O)NC(=O)[C@@H]3C=C4CCCCC4=C[C@@H]32)C(OC)C1OC (some centres not stated)	> 100 µM	–
COC(=O)CN1CCSC1=NC#N	> 100 µM	–

SMILES	TGI	GI50
O=c1/c(=C/c2ccco2)sc2nc3ccccc3n12	> 100 µM	> 100 µM
O=C(N/N=C/c1cc(Br)cc(Br)c1[O-])c1ccccc1O.O=C(N/N=C/c1cc(Br)cc(Br)c1[O-])c1ccccc1O.[Fe+2]	19.9 µM	–
O=C(O)C(CS)N=c1c2ccccc2n(O)c2ccccc12 (configuration not stated)	> 100 µM	–
O=C(Nc1ccccc1C(=O)NCCCO)/C(=C/c1ccccc1O)NC(=O)c1ccccc1	> 100 µM	–
NC(N)=NS(=O)(=O)c1ccc(NC(=O)c2ccc3nc4ccccc4c(Nc4ccc(S(=O)(=O)N=C(N)N)cc4)c3c2)cc1	> 100 µM	–
Oc1ccc(NCc2nc3ccccc3[nH]2)cc1	> 100 µM	> 100 µM
CCC[CH2][Sn]1([CH2]CCC)[O]Cc2nc(C)ccc2[O]1	29.3 µM	15.8 µM
C=CC(=O)N1CC2(CCN(c3nc(OC4CCN(CCCOC)CC4)nc4c(OCC(F)(F)F)c(-c5c(C)ccc6[nH]ncc56)c(C5CC5)cc34)CC2)C1	6.1 µM	2.35 µM
Oc1ccc(CN2CCC(N3CCCCC3)CC2)c2cccnc12	> 100 µM	26.8 µM
Brc1ccc2c(-c3csc(-c4c[nH]c5ccc(Br)cc45)n3)c[nH]c2c1	14.6 µM	–
Cc1nn(-c2cc(Cl)ccc2[N+](=O)[O-])c(C)c1Cl	> 100 µM	–
CC(C)C(=O)NC(=S)Nc1ccc([N+](=O)[O-])cc1C#N	> 100 µM	–
COC(=O)CC(NC(=O)OCc1ccccc1)C(=O)NC(CC(=O)OC)C(=O)NC(CC(=O)OC)C(=O)NC(CC(=O)OC)C(=O)NC(CC(=O)OC)C(=O)NC(CC(=O)OC)C(=O)NN (configuration not stated) (Cbz-D(OMe)D(OMe)D(OMe)D(OMe)D(OMe)D(OMe)-NHNH2; configuration not given here)	> 100 µM	–
COc1ccc(-c2c(C#N)c(N)nc3c2CCS(=O)(=O)c2ccccc2-3)cc1	> 100 µM	–
OCC(O)CC[CH2][Sn]([Br])([c]1ccccc1)[c]1ccccc1 (configuration not stated)	> 100 µM	6.54 µM
NC(N)=Nc1ncccc1[N+](=O)[O-]	> 100 µM	–
O=c1[nH]ncc(Br)c1Br	12 µM	3.07 µM
Cn1c2ccccc2c2c(-c3ccccc3)[n+]3ccncc3nc21	> 100 µM	> 100 µM
O=C1CSC(c2cccs2)N1c1nc2cc3sc(N4C(=O)CSC4c4cccs4)nc3cc2s1 (configuration not stated)	> 50 µM	–
CC[C@@]1(O)C(=O)OCc2c1cc1n(c2=O)Cc2c-1nc1cc3c(cc1c2CCl)OCO3	–	0.0648 µM
O=C1C=C(c2ccccc2)O/C1=C/C(=O)c1ccc(Cl)cc1	> 100 µM	–
CC(C)c1nc(CN(C)C(=O)N[C@H](C(=O)N[C@@H](Cc2ccccc2)C[C@H](O)[C@H](Cc2ccccc2)NC(=O)OCc2cncs2)C(C)C)cs1	> 82.1 µM	26.4 µM
O=C1C(Cl)N(c2ccccc2[N+](=O)[O-])C1c1c[nH]c2ccccc12 (configuration not stated)	> 100 µM	–
CC1(C(=O)O)CCCC1C(=O)O (configuration not stated)	> 100 µM	–

SMILES	TGI	GI50
Cc1cc2ncc3c(=O)n(NS(=O)(=O)c4ccc(N)cc4)ccc3n2n1	> 100 µM	–
COc1cc(C2=NOC(c3cc(OC)c(OC)c(OC)c3)C2)ccc1OCCCCOc1cc2c(cc1OC)C(=O)N1CCC[C@H]1C=N2 (some centres not stated)	3.3 µM	0.582 µM
CC1=CC(=Nc2ccc(N(CCCl)CCCl)cc2)C=C(C)C1=O	33.2 µM	10.9 µM
O=c1oc2cc(O)ccc2c(O)c1C(c1ccc(C(c2c(O)c3ccc(O)cc3oc2=O)c2c(O)c3ccc(O)cc3oc2=O)cc1)c1c(O)c2ccc(O)cc2oc1=O	> 100 µM	–
CSc1nc2c(c(=O)n1C)N=C(c1ccccc1)[C@H](C(CC(=O)c1ccccc1)c1ccccc1)C(c1ccccc1)N2 (some centres not stated)	> 100 µM	–
COC1/C=C\C=C(/C)C(=O)NC2=CC(=O)C(=O)C(=C2O)CC(C)CC(OC)C(O)C(C)/C=C(\C)C1OC(N)=O (configuration not stated)	> 100 µM	–
N#CSc1c[nH]c2cccc(/C=C/C(=O)/C=C(/C=C/c3cccc4[nH]cc(SC#N)c34)OB(F)F)c12	> 42.3 µM	6 µM
O=c1c2ccccc2nc(Nc2cccc(Cl)c2)n1/N=C/C=C/c1ccccc1	> 100 µM	–
CC1(C)OCC2OC3([C@H]4OC(C)(C)O[C@@H]4CO)OC(C)(C)OC3C2O1 (some centres not stated)	> 100 µM	–
CC(C)(C)OC(=O)N1CCc2c(sc3ncnc(N/N=C/c4cccc5ccccc45)c23)C1	> 100 µM	5.72 µM
CCC(C(=O)c1ccc(OC)c(OC)c1)N(C(=O)C(F)(F)F)C(C)c1ccccc1 (configuration not stated)	> 100 µM	–
CC/C(=C(/c1ccc(O)cc1)c1ccc(OCCNC)cc1)c1ccccc1	12 µM	3.51 µM
COC(=O)C1Cc2c(n(Cc3ccccc3)c3ccccc23)C(CCC(=O)O)N1C(C)C (configuration not stated)	> 100 µM	–
Cn1c2ccccc2n2c(=O)c3cc([N+](=O)[O-])ccc3c(C#N)c12	> 100 µM	–
CC(=O)OC[C@]1(C)C=C2C(=O)[C@](C)(O)C3(CC3)C(C)=C2[C@H]1O	0.673 µM	0.195 µM
CS(=O)(=O)c1ccc([C@H]2O[C@@H](CO)C[C@]2(O)c2ccc(S(C)(=O)=O)cc2)cc1	> 100 µM	> 100 µM
COc1ccc(-c2cnnc3c(-c4cccc(C(F)(F)F)c4)cnn23)cc1	> 100 µM	3.87 µM
CC(C)(CC(=O)Nc1ccccc1)C(=O)O	> 100 µM	–
COC1(OC)CCCCC2c3cccc(OC(C)=O)c3C21OC(C)=O (configuration not stated)	> 100 µM	–
CC1(CNCc2ccccc2)CC(CCc2ccccc2)N(C(=O)c2ccc([N+](=O)[O-])cc2)C1Cc1ccc(O)cc1 (configuration not stated)	34.2 µM	–
O=C(O)C(CO)NC(=O)n1c2ccccc2c2ccccc21 (configuration not stated)	> 100 µM	–
N#Cc1c(-c2ccc(F)cc2)nc(N/N=C/c2c[nH]c3ccccc23)nc1N1CCOCC1	> 100 µM	15 µM
C=C1CC(C)(c2ccc(Nc3nc4ccccc4c4occc34)cc2)OC1=O (configuration not stated)	35.6 µM	–
O=C1O[C@@H](c2ccc3c(c2)OCO3)C2C(=O)O[C@@H](c3ccc4c(c3)OCO4)C12 (some centres not stated)	> 100 µM	–

SMILES	TGI	GI50
COc1cc(C2NC(=O)c3ccccc3N2)ccc1OCCCCCOc1c(OC)cc(C2=NOC(c3cc(OC)c(OC)c(OC)c3)C2)cc1OC (configuration not stated)	> 100 µM	> 100 µM
[Cl-].[Dy+3].[O-]/N=C(\c1ccccc1)c1ccccn1.[O-]/N=C(\c1ccccc1)c1ccccn1.[O-]/N=C(\c1ccccc1)c1ccccn1	> 100 µM	26.9 µM
O=[N+]([O-])c1ccc(-c2ccc(-c3csc(Nc4ccccn4)n3)o2)cc1	> 100 µM	–
CCOC(=O)C(NC(=O)CC(C)C)(N1CCN(c2cc3c(cc2F)c(=O)c(C(=O)O)cn3C2CC2)CC1)C(F)(F)F (configuration not stated)	> 100 µM	–
CCOc1cc(-c2nc3ccccn3c2/N=C/c2cc(Br)ccc2O)ccc1O	> 100 µM	–
CC(=O)OC/C=C(/C=C/CNC1CCCCC1)OC(C)=O	52.9 µM	–
N#Cc1ccc(NC(=O)Nc2ccc(Oc3ccc(NC(=O)Nc4ccc(C#N)cc4)cc3)cc2)cc1	> 100 µM	14 µM
COc1ccc(-c2cc(=O)c3c(OC)c(OC)c(OC)cc3o2)cc1	> 100 µM	–
CC(=O)OCCN1c2ccccc2Sc2cnccc21	> 10 µM	–
CCOC(=O)C1=C(OC(OCC)C(CC)[Se]c2ccccc2)CCCC1 (configuration not stated)	> 100 µM	–
COc1cc2c(/C=C3/C(=O)Nc4ccccc43)c(Cl)[nH]c2cc1C	17.8 µM	–
Nc1ccc(S(=O)(=O)Nc2nc3ccccc3nc2N2CCCCC2)cc1	> 100 µM	–
CCOC(=O)/C(C#N)=N\Nc1ccc(-n2c(C)nc3ccccc3c2=O)cc1	> 100 µM	–
NC(=O)C(=CNC(=S)c1ccncc1)C(N)=O	> 100 µM	–
Brc1cccc(C=NC23CC4CC(CC(C4)C2)C3)c1	> 100 µM	–
COc1ccc(/C=C/CN(C)CCc2ccccc2)cc1OC	> 100 µM	–
CC1=NN(C(=O)Nc2ccccc2)C(=O)C2CCC(=O)N12 (configuration not stated)	> 100 µM	–
Cn1c(=O)c2[nH]c(SCc3ccccn3)nc2n(C)c1=S	> 100 µM	–
NC(=O)c1ccc(I)c(N)c1	> 100 µM	> 100 µM
COCc1nc2c(OC)cc(-c3nc4ccc(N5CCN(C)CC5)cc4[nH]3)c(OC)c2[nH]1	> 100 µM	–
CCN(CC)c1ccc(/C=C/c2ccc3cc(C)ccc3[n+]2CC)cc1	11.7 µM	0.405 µM
O/N=C/C1c2ccccc2-c2ccccc21	35.7 µM	–

Reference: PubChem BioAssay (NCI)
